Assay results published in the supplement of paper PMC3334620.
Over roughly 33,000 sequences, “E-score (-0.5 to 0.5)” has its median near -0.035; the highest 2% begin near 0.34. The list shows a part of the results.

Molecular target: T1, Mot3 (UniProt P54785)
T1 sequence: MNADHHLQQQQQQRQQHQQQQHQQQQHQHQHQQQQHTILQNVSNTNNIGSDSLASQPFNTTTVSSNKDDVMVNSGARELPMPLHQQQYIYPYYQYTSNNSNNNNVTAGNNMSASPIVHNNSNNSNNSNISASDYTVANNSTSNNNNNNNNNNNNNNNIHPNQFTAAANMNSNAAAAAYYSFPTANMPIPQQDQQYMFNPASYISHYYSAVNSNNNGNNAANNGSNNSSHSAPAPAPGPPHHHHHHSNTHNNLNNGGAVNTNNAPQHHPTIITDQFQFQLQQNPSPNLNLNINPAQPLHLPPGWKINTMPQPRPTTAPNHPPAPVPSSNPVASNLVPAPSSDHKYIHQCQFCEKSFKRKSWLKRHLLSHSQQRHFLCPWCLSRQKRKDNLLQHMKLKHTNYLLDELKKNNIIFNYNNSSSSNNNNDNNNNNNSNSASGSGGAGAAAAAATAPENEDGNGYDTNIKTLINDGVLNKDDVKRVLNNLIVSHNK
Experiment: PBM E-score (8-mer binding enrichment) (E-score (-0.5 to 0.5)); higher = stronger / more preferred TF binding; most listed sequences are background and not binding sites
Conditions: protein concentration: 200 nM; construct: GST-full length
Outline: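 Yeast transcription factors carrying a GST tag, as full-length proteins or DNA-binding domains, were produced by PURExpress in vitro transcription/translation. About 100-200 nM protein was applied to universal all-10-mer Agilent arrays, double-stranded by primer extension on fresh or once-stripped slides. Bound protein was detected with fluorescent anti-GST, and scans were normalised with masliner. The Universal PBM Analysis Suite gave each ungapped eight-base word, pooled with its reverse complement, an E-score, a modified Wilcoxon-Mann-Whitney statistic.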

Question: ACTGGGAA was tested. Which “PBM E-score” value did it give?
Answer: The value was -0.0465.

Question: How did the “PBM E-score” value turn out when GAAGTATC was run?
Answer: The value was -0.0457.

Question: Which “PBM E-score” value does the source give for ACGTGAGT here?
Answer: The value was 0.0732.

Question: How did the “PBM E-score” value turn out when CCGGTAGA was run?
Answer: Its value is -0.175.

Question: AATCGCTC was tested. Which “PBM E-score” value did it give?
Answer: The value was -0.23.

Question: With ACCTATAT as the sequence, how does the “PBM E-score” value read?
Answer: The value was 0.183.

Question: How did the “PBM E-score” value turn out when TACGACCA was run?
Answer: The value was 0.0497.

Question: AGAGCACA was tested. Which “PBM E-score” value did it give?
Answer: The value was -0.00184.

Question: Which “PBM E-score” value does the source give for ACTCGGAT here?
Answer: The value was 0.0488.

Question: AAGAGCAG was tested. Which “PBM E-score” value did it give?
Answer: Its value is -0.164.

Question: GGTTTATA was tested. Which “PBM E-score” value did it give?
Answer: The value was -0.0105.

Question: For GATCGTCA, which “PBM E-score” value is on record?
Answer: Its value is 0.106.

Question: With CCCCGCGG as the sequence, how does the “PBM E-score” value read?
Answer: The value was -0.0522.

Question: Which “PBM E-score” value does the source give for AGGACGCA here?
Answer: Its value is -0.15.

Question: GGTCGCTA was tested. Which “PBM E-score” value did it give?
Answer: The value was -0.168.

Question: Which “PBM E-score” value does the source give for ACCACTGC here?
Answer: The value was -0.0793.

Question: TCGCTCCA was tested. Which “PBM E-score” value did it give?
Answer: Its value is -0.146.

Question: How did the “PBM E-score” value turn out when GCACAACA was run?
Answer: The value was 0.35.

Question: Which “PBM E-score” value does the source give for AAGCTATG here?
Answer: The value was -0.133.

Question: Which “PBM E-score” value does the source give for AGAGAACT here?
Answer: The value was -0.0965.

Question: For ACTTGGTG, which “PBM E-score” value is on record?
Answer: The value was -0.198.

Question: ACAGCGTG was tested. Which “PBM E-score” value did it give?
Answer: The value was 0.128.

Question: With CCGGTGTC as the sequence, how does the “PBM E-score” value read?
Answer: The value was -0.0319.

Question: With GACTTCAA as the sequence, how does the “PBM E-score” value read?
Answer: The value was -0.134.

Question: For CAAGTCGA, which “PBM E-score” value is on record?
Answer: Its value is -0.156.

Question: For AGCCCGAA, which “PBM E-score” value is on record?
Answer: The value was -0.219.

Question: How did the “PBM E-score” value turn out when CGCACGAA was run?
Answer: Its value is 0.0525.

Question: Which “PBM E-score” value does the source give for ACTTCACG here?
Answer: Its value is 0.053.

Question: For ACGATAGC, which “PBM E-score” value is on record?
Answer: The value was -0.092.

Question: With AAACACCG as the sequence, how does the “PBM E-score” value read?
Answer: Its value is 0.175.

Question: For AGCGACGC, which “PBM E-score” value is on record?
Answer: Its value is -0.109.

Question: ACTTTAGA was tested. Which “PBM E-score” value did it give?
Answer: The value was 0.0338.

Question: For CAGTCTGC, which “PBM E-score” value is on record?
Answer: The value was -0.223.

Question: Which “PBM E-score” value does the source give for AGGGACAC here?
Answer: The value was -0.0257.

Question: With GGGGCTTA as the sequence, how does the “PBM E-score” value read?
Answer: The value was -0.33.

Question: For CACAGATA, which “PBM E-score” value is on record?
Answer: Its value is -0.0324.

Question: With ACGCATTC as the sequence, how does the “PBM E-score” value read?
Answer: The value was 0.146.

Question: For AAAAGCAT, which “PBM E-score” value is on record?
Answer: The value was 0.102.

Question: With AATTCCGC as the sequence, how does the “PBM E-score” value read?
Answer: Its value is -0.176.

Question: Which “PBM E-score” value does the source give for GGACCATA here?
Answer: Its value is -0.176.

Question: Which “PBM E-score” value does the source give for GATTCAAC here?
Answer: Its value is 0.00876.

Question: GTGCGGAA was tested. Which “PBM E-score” value did it give?
Answer: The value was -0.144.

Question: For ATGACCAC, which “PBM E-score” value is on record?
Answer: The value was 0.0115.

Question: How did the “PBM E-score” value turn out when GAATCCAC was run?
Answer: Its value is 0.00874.

Question: For CATATCCG, which “PBM E-score” value is on record?
Answer: Its value is -0.0755.

Question: With CGTGCAAG as the sequence, how does the “PBM E-score” value read?
Answer: The value was -0.0134.

Question: Which “PBM E-score” value does the source give for AGCTCTAT here?
Answer: Its value is -0.161.

Question: Which “PBM E-score” value does the source give for AGGTAAAC here?
Answer: Its value is 0.302.

Question: ATATAGCG was tested. Which “PBM E-score” value did it give?
Answer: Its value is -0.13.

Question: How did the “PBM E-score” value turn out when CTCCGTCC was run?
Answer: The value was -0.262.

Question: For AGCACCAT, which “PBM E-score” value is on record?
Answer: The value was -0.192.

Question: Which “PBM E-score” value does the source give for CAACGTGC here?
Answer: Its value is 0.156.

Question: Which “PBM E-score” value does the source give for ACCTATTG here?
Answer: The value was 0.0711.

Question: For GGAATCCC, which “PBM E-score” value is on record?
Answer: The value was -0.247.

Question: For GGTTATTA, which “PBM E-score” value is on record?
Answer: Its value is 0.0656.

Question: ATCACCCA was tested. Which “PBM E-score” value did it give?
Answer: The value was -0.21.

Question: For GTACGACA, which “PBM E-score” value is on record?
Answer: The value was 0.178.

Question: For GGATCACC, which “PBM E-score” value is on record?
Answer: The value was -0.202.

Question: How did the “PBM E-score” value turn out when CTTAATTC was run?
Answer: Its value is 0.081.

Question: With GACAGCGA as the sequence, how does the “PBM E-score” value read?
Answer: Its value is -0.349.

Question: For ACGAATAT, which “PBM E-score” value is on record?
Answer: The value was 0.0335.

Question: Which “PBM E-score” value does the source give for CGCTTAGC here?
Answer: The value was -0.259.

Question: How did the “PBM E-score” value turn out when CCGTGGCA was run?
Answer: Its value is -0.149.

Question: How did the “PBM E-score” value turn out when AGCACCCG was run?
Answer: The value was -0.356.

Question: How did the “PBM E-score” value turn out when GCGGCTCC was run?
Answer: Its value is -0.325.

Question: With AACGTACA as the sequence, how does the “PBM E-score” value read?
Answer: Its value is 0.197.

Question: With CGGCCGGC as the sequence, how does the “PBM E-score” value read?
Answer: Its value is -0.31.

Question: Which “PBM E-score” value does the source give for GGTAACTA here?
Answer: Its value is 0.135.

Question: With CAGGAAAG as the sequence, how does the “PBM E-score” value read?
Answer: Its value is 0.432.

Question: Which “PBM E-score” value does the source give for CCTAAAAG here?
Answer: The value was 0.223.

Question: With CAAGGCTG as the sequence, how does the “PBM E-score” value read?
Answer: The value was -0.0186.

Question: Which “PBM E-score” value does the source give for GGCAGTCA here?
Answer: Its value is -0.0543.

Question: For CGTGCGTC, which “PBM E-score” value is on record?
Answer: Its value is 0.0502.

Question: With CATTCACC as the sequence, how does the “PBM E-score” value read?
Answer: Its value is 0.0164.

Question: For ACGCGTGA, which “PBM E-score” value is on record?
Answer: Its value is 0.157.

Question: ACTGTGGC was tested. Which “PBM E-score” value did it give?
Answer: Its value is -0.117.

Question: Which “PBM E-score” value does the source give for AACGGCTC here?
Answer: The value was -0.269.

Question: For AGCTGTCA, which “PBM E-score” value is on record?
Answer: Its value is -0.0426.

Question: Which “PBM E-score” value does the source give for AACGCCCA here?
Answer: Its value is 0.00502.

Question: For CAGAAACC, which “PBM E-score” value is on record?
Answer: Its value is 0.0458.

Question: Which “PBM E-score” value does the source give for CGTTCGGA here?
Answer: Its value is -0.212.

Question: For CACAGGGA, which “PBM E-score” value is on record?
Answer: Its value is -0.0113.

Question: Which “PBM E-score” value does the source give for CTCCACTC here?
Answer: The value was -0.242.

Question: Which “PBM E-score” value does the source give for CGCCTTAG here?
Answer: The value was -0.139.

Question: Which “PBM E-score” value does the source give for ACTCCAGG here?
Answer: Its value is 0.0384.

Question: How did the “PBM E-score” value turn out when GCTAGTAA was run?
Answer: Its value is 0.0707.

Question: CAATCTAA was tested. Which “PBM E-score” value did it give?
Answer: The value was -0.024.

Question: How did the “PBM E-score” value turn out when AGTGTATA was run?
Answer: Its value is 0.0776.

Question: For GAGTTCGC, which “PBM E-score” value is on record?
Answer: Its value is -0.19.

Question: GACCGGTA was tested. Which “PBM E-score” value did it give?
Answer: The value was -0.223.

Question: For AAACTACT, which “PBM E-score” value is on record?
Answer: Its value is 0.0472.

Question: How did the “PBM E-score” value turn out when CGCGTGAG was run?
Answer: The value was 0.00628.

Question: With AGCGAGCT as the sequence, how does the “PBM E-score” value read?
Answer: Its value is -0.106.

Question: Which “PBM E-score” value does the source give for AGGTTCAC here?
Answer: Its value is 0.0242.

Question: Which “PBM E-score” value does the source give for CACAGGCA here?
Answer: Its value is 0.482.

Question: Which “PBM E-score” value does the source give for CGTTGATC here?
Answer: The value was 0.198.

Question: Which “PBM E-score” value does the source give for AAAGATGT here?
Answer: Its value is 0.116.

Question: Which “PBM E-score” value does the source give for CCTAGCCC here?
Answer: The value was -0.261.

Question: How did the “PBM E-score” value turn out when GAGGAGCC was run?
Answer: Its value is -0.0818.

Question: With ATATCGCG as the sequence, how does the “PBM E-score” value read?
Answer: The value was 0.00295.

Question: For AACGGAGA, which “PBM E-score” value is on record?
Answer: Its value is -0.0586.

Question: With GCATCAAA as the sequence, how does the “PBM E-score” value read?
Answer: Its value is 0.0378.

Question: AAGACTAC was tested. Which “PBM E-score” value did it give?
Answer: The value was 0.0545.

Question: For CCACGTGC, which “PBM E-score” value is on record?
Answer: The value was 0.106.

Question: For GACTGGCC, which “PBM E-score” value is on record?
Answer: Its value is -0.333.

Question: ATCCAAGC was tested. Which “PBM E-score” value did it give?
Answer: The value was -0.159.

Question: Which “PBM E-score” value does the source give for CATCTACA here?
Answer: Its value is 0.262.

Question: AAGCAAGT was tested. Which “PBM E-score” value did it give?
Answer: The value was 0.0738.

Question: For CCCACTAC, which “PBM E-score” value is on record?
Answer: The value was 0.0263.
